# ChEMBL document CHEMBL1156829
# Over roughly 5,400 compounds, “IFI” has its median near 2; the highest 2% begin near 22. This is one part of the list.
# Test: NOVARTIS: Inhibition Frequency Index (IFI) - the number of HTS assays where a compound showed > 50% inhibition/induction, expressed as a percentage of the number of assays in which the compound was tested.
# Type: functional
row,SMILES,IFI [%]
1,Cc1cc(I)ccc1N1C(=O)C2C3c4ccccc4C(CO)(c4ccccc43)C2C1=O (stereo unspecified),0
2,COc1cc(C(=O)NCCc2ccccn2)ccc1OC1CCN(CC(c2ccccc2)c2ccccc2)CC1,1.37
3,CCOP1(=O)COc2ccccc2OC1,0
4,C=C[C@H]1CN2CC[C@H]1C[C@@H]2[C@@H](O)c1ccnc2ccc(OC)cc12,1.67
5,O=C1CSC2=NCN(c3cccc(Cl)c3)CN12,2.08
6,CCc1ccc(NC(=O)COC(=O)c2cccs2)cc1,0
7,O=C(Nc1ccc(N2CCCCC2)cc1)N1CCc2nc[nH]c2C1,5.41
8,COC(=O)[C@@H]1C[C@@H](NC(=O)c2ccc(C)cc2)CN1Cc1ccc(OC)c(C)c1OC,0.885
9,COc1ccc(C2Nc3ccc([N+](=O)[O-])cc3C3C=CCC32)cc1[N+](=O)[O-] (stereo unspecified),8.33
10,CCCCCCN(C(=O)c1cccc([N+](=O)[O-])c1)C(CC)c1nc2ccccc2c(=O)n1-c1ccccc1OC (stereo unspecified),2.86
11,CCCCCCCN(CCCCCCC)CC(O)c1cc2ccccc2c2cc(Br)ccc12 (stereo unspecified),0.885
12,Cc1ccn2c(NC(C)(C)CC(C)(C)C)c(-c3ccccc3OC(=O)c3ccc(C)c([N+](=O)[O-])c3)nc2c1,3.74
13,CCCCCCOc1ccc(NC(=O)c2cccs2)cc1,0
14,O=C(N=CNNc1ccccc1F)c1cc(OCC(F)(F)F)ccc1OCC(F)(F)F,3.9
15,CCOC(=O)c1nnn(-c2nonc2N)c1-c1ccc(OC)c(OC)c1,0
16,CN(C)c1ccc(/C=C2\SC(=N)N(c3nccs3)C2=O)cc1,16.7
17,Cc1nc(-c2ccccc2)nc(C(=O)N2CCN(S(=O)(=O)/C=C/c3ccccc3)C(C)C2)c1C(=O)OCC(C)C (stereo unspecified),1.89
18,Cc1ccc(-n2c(SCc3ccc(F)cc3)nnc2C(Cc2ccccc2)NC(=O)NC(C)(C)C)cc1 (stereo unspecified),3.26
19,Cc1ccc(C(=O)Oc2ccccc2-c2nc3ccccn3c2NC(C)(C)CC(C)(C)C)cc1[N+](=O)[O-],2.83
20,CCCN1CCc2c(sc3nc(SCC(=O)c4ccccc4)nc(N)c23)C1,8
21,Cc1cc(C)cc(C(=O)Nc2c3c(nn2-c2cccc(C)c2C)CS(=O)(=O)C3)c1,4.71

row,SMILES,IFI [%]
1,Cn1c2c([n+](C)c1CCl)C(=O)c1ccccc1C2=O,35.7
2,CC(=O)c1ccc(N2CCN(Cc3cc(-c4ccnc5cc(Cl)ccc45)ccc3O)CC2)cc1,3
3,CCNC(=O)N(CCCCOc1ccc(C(C)(C)CC)cc1C(C)(C)CC)Cc1ccc(OC)c(OCc2ccccc2)c1,0.943
4,CNC(=O)c1ccc(NC(=O)Nc2ccc(C3=NCCCN3)cc2)cc1NC(=O)Nc1ccc(C2=NCCCN2)cc1,0.909
5,O=S(=O)(c1ccccc1)N1CCN(CC2CNCCO2)CC1 (stereo unspecified),1.41
6,CCOC(=O)C1=C(C)NC2=C(C(=O)CC(c3ccc(OC)c(OC)c3)C2)C1c1ccc(SC)cc1 (stereo unspecified),5.88
7,Cc1cc(Nc2ccc(O)cc2)nc2cccc(O)c12,0
8,COc1cccc(OCC(=O)NN=C(C)CC(=O)NCc2ccco2)c1,0
9,Cc1ccc(Cn2c(SCc3ccc(C(=O)NCCc4ccccc4)cc3)nc3ccncc32)cc1,0
10,c1cncc(CCNc2nccn3c(-c4cccc5ccccc45)cnc23)c1,0
11,COc1cc(NC(C)CCCN(Cc2ccccc2OC)C(=O)c2ccc(Cl)c([N+](=O)[O-])c2)c2ncccc2c1 (stereo unspecified),5.43
12,COc1ccc(-c2c[n+](CC(=O)c3ccccc3)c3n2CCC3)cc1,2.38
13,Oc1cccc2ccc[n+](CC(O)Cn3c4ccccc4c4ccccc43)c12 (stereo unspecified),0
14,COc1cccc(-c2cn3c(n2)sc2cc(C(=O)NC4CCN(Cc5ccccc5)CC4)ccc23)c1,10.5
15,CC(=O)c1cccc(CN2CCC(C(=O)Nc3ccc(-n4nc(C)cc4C)cc3)CC2)c1,0
16,CCCCCCCCCC(=O)Oc1ccccc1-c1nc2cc(C)ccn2c1NC(C)(C)CC(C)(C)C,2.17
17,O=c1[nH]nc(SCc2c(F)cccc2[N+](=O)[O-])c(=O)[nH]1,0
18,Cn1nc(C(=O)N2CCCC2)c2c1CCC(NCc1cnc3ccccc3c1)C2 (stereo unspecified),2.47
19,CCOc1ccc2[nH]c3c(NCCN(C)C)ncnc3c2c1,3.12
20,CCNC(=O)NCCSc1nc(-c2ccc(OC)cc2)c(-c2ccc(OC)cc2)n1CC,2.75
21,CCOC(=O)c1ccc(N2CCN(c3ccc(F)cc3)CC2)c(NC(=O)Nc2ccccc2)c1,0

row,SMILES,IFI [%]
1,COc1ccc(OC)c(-c2ccc(O)c(CNCC3(N4CCCCC4)CCCCC3)c2)c1,0.885
2,CCNC(=S)NC1CC2CCCC(C1)N2CCc1ccccc1 (stereo unspecified),2.6
3,CS(=O)(=O)c1cnc2ncnn2c1C1CCCN(C(=O)c2ccccn2)C1 (stereo unspecified),0
4,Cc1ccc2c(c1)NC(c1ccc(F)cc1)C1=C(CC(c3ccccc3)CC1=O)N2 (stereo unspecified),2.35
5,CC(C)(C)Cc1ccc(OCCCC(=O)Nc2ccc(Cl)c(N)c2)c(CC(C)(C)C)c1,8.4
6,CC(C)c1ccc(NC(=O)/C=C/c2ccccc2Cl)cc1,0
7,O=C(CCN1C(=O)C2CCCCC2C1=O)N1CCc2ccccc2C1 (stereo unspecified),1.56
8,O=C(Nc1ccccc1)c1ccccc1OCC(O)Cn1c2ccccc2c2ccccc21 (stereo unspecified),0
9,Cc1sc2nc(C3CC3)n(C3CCN(C(=O)c4ccccn4)CC3)c(=O)c2c1C,0
10,Cc1cc(N2CCN(Cc3ccc(F)cc3)CC2)n2c(nc3ccccc32)c1C#N,1.18
11,CCC(CO)Nc1nccnc1-c1ccccc1Oc1ccccc1 (stereo unspecified),0
12,COc1cc(NCCCC(C)Nc2ccnc3cc4ccccc4cc23)c2ncccc2c1 (stereo unspecified),0
13,CC1=NNC(=O)C1C(c1ccc(Cl)cc1Cl)C1C(=O)NN=C1C (stereo unspecified),0
14,O=C1C2CN(C(=O)Nc3ccccc3)C(c3ccc(Cl)cc3)C2C(=O)N1c1ccccc1 (stereo unspecified),0
15,C[C@@H]1CCC[C@@H](C[C@H]2Cc3cc(O)cc(O)c3C(=O)O2)O1,1.79
16,Cc1ccc(Cn2c(N3CCC(C(=O)NCc4ccc(F)cc4)CC3)nc3ccccc32)cc1,2.7
17,COc1ccc2c(c1)N(C)/C(=C/c1cccc[n+]1C)S2,15.4
18,Cc1noc(C)c1S(=O)(=O)N(CC(C)C)C(C(=O)NC(CN1CCCC1)c1ccccc1)c1ccccc1 (stereo unspecified),1.98
19,CCOC(=O)COc1ccc(C2NC(=S)NC(C)=C2C(C)=O)cc1OC (stereo unspecified),0
